Experimental findings from a collection of fitness landscapes (doi:10.1038/s41467-024-54723-y) are described below.

The full ranking holds about 18,000 sequences; the median of “TetR repression strength (sort-seq, GFP reporter)” is about 0.23, and the highest 2% start at about 0.68. The list shows a part of the results.

The target in this assay is TetR (class B, Tn10) (UniProt P04483). The experiment in a line: TetR repression strength (sort-seq, GFP reporter) (relative to tetO2 = 1); higher = stronger repression. As to conditions: E. coli. Put shortly: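 In LB with 50 µg/mL chloramphenicol, E. coli SIG10-MAX holding a low-copy library with eight randomized operator positions between a constitutive promoter and sfGFP, plus constitutive TetR, grew for 5 h at 37 °C. FACS then sorted 10^6 cells into 13 fluorescence bins for Illumina sequencing of each bin. Repression strength equals the top bin index plus one less the read-weighted mean bin, normalized to the unaltered operator. Values from three independent transformations were averaged when reads were ≥30 in every replicate and the CV was ≤0.5.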
Sequence of UniProt P04483 (P04483 whole entry): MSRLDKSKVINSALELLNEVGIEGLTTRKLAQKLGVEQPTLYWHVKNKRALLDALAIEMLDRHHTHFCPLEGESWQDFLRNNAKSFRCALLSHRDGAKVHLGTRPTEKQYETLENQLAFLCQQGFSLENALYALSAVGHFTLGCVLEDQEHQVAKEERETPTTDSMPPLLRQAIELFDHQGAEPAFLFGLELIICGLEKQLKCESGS
Sequence TCCCCTGCAGTTGGGGAGA gave a TetR repression strength of 0.185.
For TCCCAGTTAGTGGCGGAGA, the TetR repression strength was 0.0987.
In turn, TCCCATCGAGTGCGTGAGA displayed a TetR repression strength of 0.277.
As to TCCCTCCGAGTTGTCGAGA, the TetR repression strength turned out to be 0.237.
The value for TCCCGTGCAGTAAGAGAGA was 0.345; that for TCCCGGCCAGTAAATGAGA was 0.318; that for TCCCTATAAGTCCTCGAGA was 0.529.
The sequence TCCCGCGGAGTCGAGGAGA came in with a TetR repression strength of 0.258.
As for TCCCTCTGAGTACTGGAGA, the TetR repression strength was 0.223.
The sequence TCCCCCTGAGTCTTTGAGA gave a TetR repression strength of 0.312.
The sequence TCCCATTCAGTTTTAGAGA came in with a TetR repression strength of 0.319.
The value for TCCCCCCTAGTACGCGAGA was 0.143; that for TCCCCCCGAGTGACAGAGA was 0.626; that for TCCCCAGGAGTACTTGAGA was 0.223.
Regarding TCCCGAGGAGTTATGGAGA, the TetR repression strength is 0.189.
The value for TCCCTATAAGTCAAAGAGA was 0.663; that for TCCCCTAAAGTGTCGGAGA was 0.111; that for TCCCTAGTAGTGCCGGAGA was 0.385.
On to TCCCCGGCAGTGCCTGAGA, for which the TetR repression strength was 0.182.
Regarding TCCCTCCCAGTTACCGAGA, the TetR repression strength stood at 0.363.
In turn, TCCCATCAAGTTCAAGAGA yielded a TetR repression strength of 0.468.
TCCCTAGGAGTGAGGGAGA had a TetR repression strength of 0.104.
The sequence TCCCCTACAGTTCTAGAGA registered a TetR repression strength of 0.522.
Sequence TCCCTTCTAGTTGTAGAGA yielded a TetR repression strength of 0.441.
TCCCCATCAGTTAGTGAGA gave a TetR repression strength of 0.304.
The value for TCCCGGAAAGTCTCAGAGA was 0.0397.
With TCCCGCGAAGTCATGGAGA, the TetR repression strength amounted to 0.104.
For TCCCATGCAGTTGAGGAGA the value was 0.201; for TCCCGTTCAGTGCGTGAGA, 0.145.
The sequence TCCCTTTGAGTTTGGGAGA yielded a TetR repression strength of 0.168.
In turn, TCCCGCAGAGTTGTTGAGA came in with a TetR repression strength of 0.217.
Regarding TCCCACCCAGTCCCTGAGA, the TetR repression strength was determined as 0.534.
TCCCCGAGAGTATGCGAGA: the TetR repression strength came to 0.165.
The value for TCCCTTGTAGTCGGGGAGA was 0.938; that for TCCCGACGAGTTCAGGAGA was 0.128.
For TCCCTCGAAGTTTAAGAGA the value was 0.2.
For TCCCGCGGAGTGAGAGAGA the value was 0.575; for TCCCACTGAGTCGGGGAGA, 0.384; for TCCCCAACAGTAGGTGAGA, 0.113.
In turn, TCCCAAAGAGTGATTGAGA displayed a TetR repression strength of 0.404.
With TCCCTCGGAGTGGATGAGA, the TetR repression strength is 0.213.
Sequence TCCCGGGCAGTTACGGAGA gave a TetR repression strength of 0.2.
The sequence TCCCTGAGAGTTTGAGAGA showed a TetR repression strength of 0.208.
The value for TCCCTGGCAGTGTACGAGA was 0.246.
For TCCCCGCGAGTGCAAGAGA the value was 0.369.
TCCCGCATAGTCGGGGAGA came in with a TetR repression strength of 0.112.
The sequence TCCCGGCTAGTTGCGGAGA yielded a TetR repression strength of 0.155.
Turning to TCCCTATCAGTCAATGAGA, the TetR repression strength stood at 0.625.
Sequence TCCCCAAGAGTAGATGAGA showed a TetR repression strength of 0.739.
TCCCAAATAGTGATGGAGA registered a TetR repression strength of 0.0707.
The sequence TCCCAGCTAGTATAGGAGA registered a TetR repression strength of 0.353.
In the case of TCCCGTATAGTCGGAGAGA, the TetR repression strength was 0.138.
With TCCCGAGCAGTCTTCGAGA, the TetR repression strength came out at 0.172.
Consider TCCCGGCTAGTCGGCGAGA, for which the TetR repression strength is 0.187.
As to TCCCTAGGAGTTGTGGAGA, the TetR repression strength came to 0.254.
Consider TCCCTCTCAGTCAGAGAGA, for which the TetR repression strength is 0.423.
TCCCACTGAGTATCAGAGA: the TetR repression strength came out at 0.0567.
For TCCCACTGAGTTAAAGAGA the value was 0.449; for TCCCAACCAGTGCGCGAGA, 0.16; for TCCCGGAGAGTACGCGAGA, 0.1.
In turn, TCCCCCATAGTTTACGAGA registered a TetR repression strength of 0.364.
The value for TCCCGACCAGTCCTGGAGA was 0.281; that for TCCCAATGAGTGTAAGAGA was 0.314; that for TCCCGGTTAGTTACCGAGA was 0.101.
TCCCATTGAGTTGCAGAGA yielded a TetR repression strength of 0.166.
TCCCATCTAGTAGTTGAGA displayed a TetR repression strength of 0.161.
For TCCCGCGAAGTAACAGAGA the value was 0.191.
The value for TCCCGGTTAGTGGTGGAGA was 0.25; that for TCCCAGTGAGTCGCCGAGA was 0.0565; that for TCCCGCCTAGTGTCAGAGA was 0.296.
The sequence TCCCTCGGAGTGAAGGAGA had a TetR repression strength of 0.156.
In turn, TCCCCGGGAGTACGCGAGA yielded a TetR repression strength of 0.
Take TCCCGTAAAGTCGCCGAGA: the TetR repression strength was 0.047.
The value for TCCCCTGCAGTAAGAGAGA was 0.268; that for TCCCGTCCAGTGGATGAGA was 0.184; that for TCCCCCAGAGTCAGGGAGA was 0.336.
For the sequence TCCCTTATAGTTGCTGAGA, the TetR repression strength is 0.0415.
Take TCCCTAGAAGTTGGCGAGA: the TetR repression strength is 0.37.
Regarding TCCCGTATAGTGCGTGAGA, the TetR repression strength was determined as 0.0622.
The value for TCCCTAGAAGTGTCGGAGA was 0.152; that for TCCCGATCAGTGGCGGAGA was 0.027; that for TCCCGTAGAGTCGTGGAGA was 0.173.
The value for TCCCGCGCAGTATCCGAGA was 0.282; that for TCCCCACCAGTAGCTGAGA was 0.329; that for TCCCAGGCAGTAAGGGAGA was 0.0777.
The value for TCCCAAGTAGTGGTGGAGA was 0.261; that for TCCCGCCTAGTCGTCGAGA was 0.203; that for TCCCGGGGAGTACGCGAGA was 0.23.
In the case of TCCCCCGGAGTGGTAGAGA, the TetR repression strength was 0.237.
For TCCCTTTTAGTAACGGAGA the value was 0.222; for TCCCACTCAGTGTCCGAGA, 0.294; for TCCCTTAGAGTGGTTGAGA, 0.393.
For TCCCACCGAGTTTGTGAGA, the TetR repression strength worked out at 0.206.
Consider TCCCCAGTAGTACAGGAGA, for which the TetR repression strength turned out to be 0.231.
TCCCGGCGAGTCCCGGAGA came in with a TetR repression strength of 0.187.
For the sequence TCCCTGTAAGTTGAAGAGA, the TetR repression strength worked out at 0.461.
For TCCCCAGGAGTACAGGAGA the value was 0.417.
For TCCCGCGGAGTGGGTGAGA the value was 0.212; for TCCCGCGAAGTGCACGAGA, 0.056.
As to TCCCTGAAAGTCTTGGAGA, the TetR repression strength is 0.185.
TCCCGTGGAGTCTCAGAGA gave a TetR repression strength of 0.168.
On to TCCCGCTGAGTTTCCGAGA, for which the TetR repression strength amounted to 0.128.
